Our source for the inhibition values is ChEMBL document CHEMBL1961873, “Compounds: GSK PKIS; Assays: Nanosyn kinase panel” (2012).

For part of these data: The strong results were mostly taken out for another list; the other results follow. This is a selection; strong and weak results do not stand in their true shares.

Assay [1] concerns the target T1, Serine/threonine-protein kinase D2 (Homo sapiens) (UniProt Q9BZL6).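 Also: mean value of PRKD2 inhibition, from the GSK PKIS screening panel.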
T1 sequence (whole entry): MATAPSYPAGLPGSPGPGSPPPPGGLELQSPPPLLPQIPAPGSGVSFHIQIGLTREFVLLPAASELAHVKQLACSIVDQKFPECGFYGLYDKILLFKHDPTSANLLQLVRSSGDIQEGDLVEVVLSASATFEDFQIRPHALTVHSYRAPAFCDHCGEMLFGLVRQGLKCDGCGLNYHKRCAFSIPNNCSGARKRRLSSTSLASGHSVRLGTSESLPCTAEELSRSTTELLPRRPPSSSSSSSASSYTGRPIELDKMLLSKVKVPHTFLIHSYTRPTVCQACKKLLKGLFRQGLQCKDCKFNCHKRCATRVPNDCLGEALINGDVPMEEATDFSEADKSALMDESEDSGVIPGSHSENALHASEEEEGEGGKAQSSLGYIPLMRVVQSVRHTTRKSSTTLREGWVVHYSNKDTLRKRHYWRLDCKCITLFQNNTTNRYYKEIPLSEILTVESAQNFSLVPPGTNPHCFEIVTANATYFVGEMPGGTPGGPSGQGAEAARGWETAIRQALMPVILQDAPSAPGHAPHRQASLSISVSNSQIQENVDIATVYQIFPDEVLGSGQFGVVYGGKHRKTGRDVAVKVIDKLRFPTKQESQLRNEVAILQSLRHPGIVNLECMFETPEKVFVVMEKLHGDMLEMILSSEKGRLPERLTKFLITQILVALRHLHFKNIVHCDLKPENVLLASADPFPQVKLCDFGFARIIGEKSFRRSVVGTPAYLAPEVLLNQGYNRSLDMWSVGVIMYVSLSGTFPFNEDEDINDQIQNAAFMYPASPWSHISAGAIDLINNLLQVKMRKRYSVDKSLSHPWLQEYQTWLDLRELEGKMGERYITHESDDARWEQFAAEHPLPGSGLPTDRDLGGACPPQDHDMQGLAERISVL
The settings on record: at 1 µM.

The target of assay [2] is T2, Serine/threonine-protein kinase D3 (Homo sapiens) (UniProt O94806).
T2 sequence (whole entry): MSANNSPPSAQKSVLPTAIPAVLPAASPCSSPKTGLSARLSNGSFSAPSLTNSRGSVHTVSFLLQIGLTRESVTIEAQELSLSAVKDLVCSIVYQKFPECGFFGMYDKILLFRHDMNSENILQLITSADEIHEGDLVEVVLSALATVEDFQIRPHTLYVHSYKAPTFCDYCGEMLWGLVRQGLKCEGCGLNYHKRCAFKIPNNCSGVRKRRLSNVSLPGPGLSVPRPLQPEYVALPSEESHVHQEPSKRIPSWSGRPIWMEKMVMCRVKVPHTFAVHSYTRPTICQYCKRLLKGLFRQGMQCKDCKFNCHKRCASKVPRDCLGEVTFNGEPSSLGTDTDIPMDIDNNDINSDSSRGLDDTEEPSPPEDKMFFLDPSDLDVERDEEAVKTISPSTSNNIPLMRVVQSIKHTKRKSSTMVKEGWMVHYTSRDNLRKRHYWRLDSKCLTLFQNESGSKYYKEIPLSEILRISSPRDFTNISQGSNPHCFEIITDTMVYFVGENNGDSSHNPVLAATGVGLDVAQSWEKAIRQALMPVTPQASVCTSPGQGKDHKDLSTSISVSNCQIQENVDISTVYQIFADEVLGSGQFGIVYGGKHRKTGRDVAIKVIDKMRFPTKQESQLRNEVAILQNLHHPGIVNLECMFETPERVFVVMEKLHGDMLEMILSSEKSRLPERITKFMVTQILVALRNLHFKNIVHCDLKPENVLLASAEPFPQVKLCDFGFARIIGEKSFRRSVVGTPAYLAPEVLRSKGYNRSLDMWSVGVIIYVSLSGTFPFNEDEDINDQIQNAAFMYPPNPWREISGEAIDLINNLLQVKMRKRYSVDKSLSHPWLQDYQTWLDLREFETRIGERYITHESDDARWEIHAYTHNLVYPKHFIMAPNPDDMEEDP
The settings on record: at 0.1 µM.

In assay [3] the target is T2, Serine/threonine-protein kinase D3 (Homo sapiens). The settings on record: at 1 µM.
Assay [4] has as its target T3, cGMP-dependent protein kinase 1 (Homo sapiens) (UniProt Q13976).
T3 sequence (whole entry): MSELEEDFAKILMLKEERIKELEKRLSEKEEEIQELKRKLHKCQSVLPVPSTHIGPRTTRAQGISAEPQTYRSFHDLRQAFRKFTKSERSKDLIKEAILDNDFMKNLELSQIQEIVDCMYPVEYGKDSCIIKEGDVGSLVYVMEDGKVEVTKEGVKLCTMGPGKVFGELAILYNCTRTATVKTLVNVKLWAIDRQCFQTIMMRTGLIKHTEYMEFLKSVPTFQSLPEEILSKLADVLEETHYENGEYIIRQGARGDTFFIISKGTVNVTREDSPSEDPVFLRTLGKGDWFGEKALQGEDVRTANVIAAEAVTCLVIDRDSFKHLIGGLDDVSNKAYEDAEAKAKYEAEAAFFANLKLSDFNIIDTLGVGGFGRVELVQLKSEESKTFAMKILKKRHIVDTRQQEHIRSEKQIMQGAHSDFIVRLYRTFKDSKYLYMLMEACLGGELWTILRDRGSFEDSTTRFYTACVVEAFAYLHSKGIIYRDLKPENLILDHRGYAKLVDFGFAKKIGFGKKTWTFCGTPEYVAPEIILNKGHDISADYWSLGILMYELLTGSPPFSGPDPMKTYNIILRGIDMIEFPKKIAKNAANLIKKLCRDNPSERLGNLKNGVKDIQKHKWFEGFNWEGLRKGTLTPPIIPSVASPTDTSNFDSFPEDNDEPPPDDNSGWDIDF
The settings on record: at 0.1 µM.

The target in assay [5] is T3, cGMP-dependent protein kinase 1 (Homo sapiens). The settings on record: at 1 µM.
For assay [6], the target named is T4, cGMP-dependent protein kinase 2 (Homo sapiens) (UniProt Q13237).
T4 sequence (whole entry): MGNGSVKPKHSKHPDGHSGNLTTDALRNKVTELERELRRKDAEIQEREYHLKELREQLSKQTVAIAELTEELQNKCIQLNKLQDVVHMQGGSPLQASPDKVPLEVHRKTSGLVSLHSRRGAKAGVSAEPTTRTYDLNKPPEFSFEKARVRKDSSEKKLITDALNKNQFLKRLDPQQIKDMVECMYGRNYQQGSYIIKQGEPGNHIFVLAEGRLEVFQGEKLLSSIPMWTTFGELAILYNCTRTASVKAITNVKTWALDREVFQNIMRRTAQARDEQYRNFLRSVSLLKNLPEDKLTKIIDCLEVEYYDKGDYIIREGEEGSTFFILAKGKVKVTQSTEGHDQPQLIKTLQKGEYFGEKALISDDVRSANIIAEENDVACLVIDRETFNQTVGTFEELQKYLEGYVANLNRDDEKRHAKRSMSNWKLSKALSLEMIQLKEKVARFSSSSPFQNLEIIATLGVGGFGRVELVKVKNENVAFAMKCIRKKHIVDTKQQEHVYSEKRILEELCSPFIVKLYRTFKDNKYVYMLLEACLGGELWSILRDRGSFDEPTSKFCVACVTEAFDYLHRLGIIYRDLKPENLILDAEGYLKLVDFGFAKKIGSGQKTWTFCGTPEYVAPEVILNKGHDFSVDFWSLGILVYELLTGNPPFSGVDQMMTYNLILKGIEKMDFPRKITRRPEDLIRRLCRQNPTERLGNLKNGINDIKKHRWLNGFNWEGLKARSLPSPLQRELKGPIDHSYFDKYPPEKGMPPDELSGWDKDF
The settings on record: at 0.1 µM.

The target of assay [7] is T4, cGMP-dependent protein kinase 2 (Homo sapiens). Conditions: at 1 µM.
Assay [8] has as its target T5, cAMP-dependent protein kinase catalytic subunit PRKX (Homo sapiens) (UniProt P51817).
T5 sequence (whole entry): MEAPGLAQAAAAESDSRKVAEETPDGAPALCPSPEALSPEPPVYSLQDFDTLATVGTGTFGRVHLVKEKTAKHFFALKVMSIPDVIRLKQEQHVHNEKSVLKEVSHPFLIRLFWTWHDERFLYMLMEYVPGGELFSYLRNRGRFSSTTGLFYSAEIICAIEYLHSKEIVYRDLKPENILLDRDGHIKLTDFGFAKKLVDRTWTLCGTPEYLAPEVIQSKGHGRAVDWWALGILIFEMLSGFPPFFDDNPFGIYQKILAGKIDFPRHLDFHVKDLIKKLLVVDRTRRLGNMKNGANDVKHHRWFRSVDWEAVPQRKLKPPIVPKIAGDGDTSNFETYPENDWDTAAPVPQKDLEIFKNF
The settings on record: at 0.1 µM.

The target in assay [9] is T5, cAMP-dependent protein kinase catalytic subunit PRKX (Homo sapiens). The settings on record: at 1 µM.
Assay [10] concerns the target Rho-associated protein kinase 1 (Homo sapiens) (UniProt Q13464). The settings on record: at 0.1 µM.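 Also: values are mean percent inhibition of ROCK1.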
Chain of UniProt Q13464 (Q13464 whole entry, looked up): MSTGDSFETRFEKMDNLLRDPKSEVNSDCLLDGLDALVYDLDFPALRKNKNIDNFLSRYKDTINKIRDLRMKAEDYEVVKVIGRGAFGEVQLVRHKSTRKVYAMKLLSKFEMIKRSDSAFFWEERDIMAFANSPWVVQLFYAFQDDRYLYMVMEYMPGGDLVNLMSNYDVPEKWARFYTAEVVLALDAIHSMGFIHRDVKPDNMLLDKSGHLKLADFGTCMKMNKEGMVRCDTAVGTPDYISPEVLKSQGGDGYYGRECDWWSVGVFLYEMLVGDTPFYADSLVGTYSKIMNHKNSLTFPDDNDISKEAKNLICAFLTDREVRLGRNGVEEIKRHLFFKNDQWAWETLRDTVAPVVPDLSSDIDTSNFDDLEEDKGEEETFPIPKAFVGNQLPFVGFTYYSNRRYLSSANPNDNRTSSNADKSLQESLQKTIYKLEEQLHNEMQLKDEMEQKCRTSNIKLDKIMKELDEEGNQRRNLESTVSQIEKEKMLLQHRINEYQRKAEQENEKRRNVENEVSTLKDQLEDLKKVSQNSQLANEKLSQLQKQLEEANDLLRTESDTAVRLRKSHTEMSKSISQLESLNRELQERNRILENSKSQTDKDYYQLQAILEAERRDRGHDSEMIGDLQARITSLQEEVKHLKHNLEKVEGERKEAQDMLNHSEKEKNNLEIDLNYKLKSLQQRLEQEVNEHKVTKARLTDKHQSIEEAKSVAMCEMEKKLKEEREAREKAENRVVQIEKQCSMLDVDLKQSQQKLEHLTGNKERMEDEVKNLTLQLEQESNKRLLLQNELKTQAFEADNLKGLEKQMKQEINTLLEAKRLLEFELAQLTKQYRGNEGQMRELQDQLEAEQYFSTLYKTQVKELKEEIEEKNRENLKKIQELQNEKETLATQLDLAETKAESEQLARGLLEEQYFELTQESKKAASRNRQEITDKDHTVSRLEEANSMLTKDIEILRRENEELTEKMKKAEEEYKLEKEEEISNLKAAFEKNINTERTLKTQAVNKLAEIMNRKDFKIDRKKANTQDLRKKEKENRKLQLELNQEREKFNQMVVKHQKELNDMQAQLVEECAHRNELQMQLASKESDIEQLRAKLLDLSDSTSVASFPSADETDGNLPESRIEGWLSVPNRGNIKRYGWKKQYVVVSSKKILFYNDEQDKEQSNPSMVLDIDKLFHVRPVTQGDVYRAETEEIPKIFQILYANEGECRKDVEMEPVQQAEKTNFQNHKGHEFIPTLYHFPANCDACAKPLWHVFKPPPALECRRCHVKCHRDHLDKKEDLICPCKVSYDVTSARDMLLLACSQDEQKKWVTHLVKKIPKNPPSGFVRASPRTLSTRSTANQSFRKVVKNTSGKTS

Regarding `CS(=O)(=O)c1ccc(Oc2nccc(-c3c(-c4ccc(F)cc4)ncn3C3CCNCC3)n2)cc1`, the inhibition in assay [1] was 2.39%; in assay [2], 4.58%; in assay [3], 6.17%; in assay [4], 2.78%; in assay [5] it was 3.05%; in assay [6], 2.81%. In addition, the inhibition in [7] was found to be 2.75%; in assay [8], 1.52%; in assay [9] it was 2.83%; in [10], 2.48%.
As to `Fc1ccc(-c2ncn(C3CCNCC3)c2-c2ccnc(Oc3cccc(F)c3)n2)cc1`, the inhibition in assay [1] came to 5.29%; in [2] it was 4.52%; in [3] it was 6.17%; in assay [4] it was 3.66%; in [5] it was 7.09%; in assay [6], 3.17%. Further, the inhibition in assay [7] worked out at 4.69%; in assay [9], 2.08%; in assay [10], 3.18%.
For `COc1ccccc1Oc1nccc(-c2c(-c3ccc(F)cc3)ncn2C2CCNCC2)n1`, the inhibition in assay [1] came to 10.8%; in [2], 5.31%; in assay [3] it was 12.1%; in assay [4] it was 3.13%; in assay [5], 2.97%; in assay [6] it was 2.29%. Also, the inhibition is 4.69% in assay [7], 2.58% in assay [8], 2.39% in assay [9] and 2.78% in assay [10].
Take `O=C1NC(=O)C(c2ccccc2)=C1Nc1ccccc1`: the inhibition was 6.11% in assay [1]; 5.73% in assay [2]; 6.24% in [3]; 3.1% in [4]; 7.14% in assay [5]; 3.35% in assay [6]. Moreover, the inhibition in assay [7] came to 5.15%; in [8] it was 3.03%; in assay [9] it was 4.28%; in assay [10] it was 0.28%.
With `Fc1ccc(Oc2nccc(-c3c(-c4ccc(F)cc4)ncn3C3CCNCC3)n2)cc1`, the inhibition is -2.14% in assay [1]; 1.07% in [2]; 0% in assay [3]; 4.51% in assay [4]; 6.32% in [5]; 3.55% in assay [6]. The inhibition stood at 5.41% in assay [7], 3.35% in [8], 5% in [9] and 1.58% in assay [10].
On to `NC(=O)CCc1ccccc1Oc1nccc(-c2c(-c3ccc(F)cc3)ncn2C2CCNCC2)n1`, for which the inhibition in assay [1] is 0.47%; in [2], 0.26%; in [3] it was -0.78%; in assay [4], -0.14%; in assay [5] it was 0.21%; in assay [6], 0.15%. In addition, the inhibition in assay [7] was 0.97%; in assay [8], 0.5%; in assay [9], 0.49%; in assay [10], 0.32%.
On to `O=C1NC(=O)C(c2ccccc2Cl)=C1Nc1cc(Cl)c(O)c(Cl)c1`, for which the inhibition in assay [1] was 1.74%; in [2], 3.47%; in assay [3], 2.15%; in assay [4], 1.42%; in assay [5] it was 2.3%; in [6] it was -0.39%. For the same molecule, the inhibition in assay [7] was 2.34%; in assay [8] it was 1.23%; in [9] it was 3.25%; in [10], 0.56%.
